Measurements: the supplement of paper PMC12217912
The list shows a part of the results. The full chains were built here from the parent and the listed change. Inactive controls read about 0.05.

B1: TEV protease; numbered along this chain (parent)
chain: MGESLFKGPRDYNPISSSICHLTNESDGHTTSLYGIGFGPFIITNKHLFRRNNGTLVVQSLHGVFKVKDTTTLQQHLVDGRDMIIIRMPKDFPPFPQKLKFREPQREERICLVTTNFQTKSMSSMVSDTSCTFPSGDGIFWKHWIQTKDGQCGSPLVSTRDGFIVGIHSASNFTNTNNYFTSVPKNFMELLTNQEAQQWVSGWRLNADSVLWGGHKVFMVKPEEPFQPVKEATQL

Variants of: B1
Assay: raw area under fraction-flipped curve 0-4 h after induction (AUC4h, not background-subtracted), DNA-recorder readout of cleavage of the substrate (dimensionless); higher = more cleavage of the substrate by the protease variant
Details: temperature: 34 °C; time window: 0-4 h after rhamnose induction
Method: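 In vivo DNA recorder in E. coli TOP10(DE3) ΔrhaA at 34 °C. Each TEVp single-site mutant (parent TEVp 0) is paired with a single-site variant of the 7-mer TEVs (canonical ENLYFQ|S). The substrate sits between flexible linkers in a Bxb1-sfGFP-TEVs-SsrA fusion, so cleavage stabilises Bxb1 and speeds flipping of a recombination array, read by NGS. The value is the raw area under the fraction-flipped curve over 0-4 h after rhamnose induction (AUC4h), with ≥20 reads per time point. It is not background-subtracted; inactive controls average about 0.047.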
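Also: Bxb1 expression induced with 0.2% (w/v) L-rhamnose at OD600 near 0.5, cultures sampled hourly, flipped fraction per protease–substrate barcode pair counted by paired-end Illumina sequencing.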

Row | Variant | area with substrate ENLYFAS | area with substrate ENLYFCS | area with substrate ENLYFDS | area with substrate ENLYFES | area with substrate ENLYFFS | area with substrate ENLYFHS | area with substrate ENLYFIS | area with substrate ENLYFPS | area with substrate ENLYFSS | area with substrate ENLYFTS | area with substrate ENLYFVS | area with substrate ENLYFWS | area with substrate ENLYFGS | area with substrate ENLYFNS | area with substrate ENLYFYS | area with substrate ENLYFKS | area with substrate ENLYFMS | area with substrate ENLYFLS | area with substrate ENLYFRS
1 | V217G | 0.0558 | 0.0582 | 0.0588 | 0.0537 | 0.0711 | 0.0505 | 0.0478 | 0.0713 | 0.0644 | 0.0623 | 0.0126 | 0.0626 | – | – | – | – | – | – | –
2 | F218A | 0.0584 | 0.0589 | – | – | 0.0683 | 0.0488 | 0.0474 | 0.0673 | – | – | 0.0518 | 0.0419 | 0.0569 | 0.0688 | 0.0482 | – | – | – | –
3 | F218K | 0.0317 | – | – | 0.0563 | 0.0669 | 0.057 | 0.0557 | 0.0571 | – | 0.0549 | – | – | – | 0.0538 | – | 0.0547 | 0.0702 | – | –
4 | M219H | 0.049 | 0.0977 | – | 0.0583 | 0.0648 | 0.0608 | 0.0591 | 0.0641 | 0.0485 | – | – | – | 0.0608 | 0.0554 | 0.0582 | 0.0564 | 0.0608 | 0.061 | –
5 | M219K | 0.0578 | 0.048 | 0.0602 | 0.0497 | 0.065 | 0.0653 | 0.0561 | 0.0541 | 0.0612 | 0.0567 | – | 0.069 | 0.0573 | – | 0.0368 | 0.0681 | 0.0527 | 0.0626 | –
6 | V220L | 0.0618 | 0.0612 | 0.0708 | 0.0701 | 0.0472 | 0.0447 | 0.0509 | 0.0559 | 0.0586 | 0.0513 | 0.0567 | 0.059 | – | 0.0654 | 0.0562 | 0.0576 | 0.0627 | 0.0553 | 0.0521
7 | V220Y | 0.0663 | 0.0516 | 0.0452 | 0.0716 | 0.0461 | 0.0411 | 0.0678 | 0.073 | – | 0.0599 | – | – | – | – | 0.061 | 0.0792 | 0.0603 | – | 0.0714
8 | K221A | 0.061 | 0.0643 | 0.0577 | 0.0617 | – | 0.059 | – | 0.0612 | 0.0483 | – | – | – | – | 0.0681 | 0.0649 | 0.0471 | – | – | –
9 | K221C | 0.0566 | 0.0546 | 0.0729 | 0.0417 | 0.0667 | 0.0638 | 0.0633 | 0.0656 | 0.0601 | 0.0448 | – | 0.0443 | 0.0746 | 0.0238 | 0.0531 | 0.0679 | 0.0731 | 0.0617 | –
10 | K221M | 0.0684 | – | 0.0673 | 0.0584 | 0.0678 | 0.0605 | 0.0592 | 0.0564 | – | – | 0.0492 | – | 0.0585 | 0.0572 | – | 0.039 | 0.0546 | 0.0608 | 0.053
11 | P222R | 0.0615 | 0.046 | – | 0.0702 | 0.06 | 0.0852 | 0.0537 | 0.0539 | – | 0.0646 | – | 0.0644 | 0.075 | 0.0641 | – | 0.0585 | 0.0639 | 0.0543 | 0.051
12 | F226S | 0.0579 | 0.0537 | 0.065 | – | 0.059 | 0.0589 | 0.0542 | 0.0577 | 0.0574 | – | 0.0609 | 0.0536 | – | – | 0.0571 | 0.0619 | 0.0634 | – | 0.0518
13 | Q227F | 0.0904 | – | – | – | 0.0729 | – | 0.0513 | 0.0546 | 0.0586 | – | – | – | – | 0.0362 | 0.0435 | 0.0587 | 0.0873 | – | 0.0666
14 | Q227G | 0.0562 | 0.06 | – | 0.0763 | 0.0624 | 0.0579 | 0.0564 | 0.0596 | 0.0558 | 0.055 | – | 0.0348 | – | – | 0.0724 | – | 0.0629 | 0.0594 | 0.0538
15 | Q227N | 0.0556 | 0.079 | 0.0657 | 0.0382 | 0.0609 | 0.0503 | 0.049 | 0.0576 | – | – | 0.0503 | 0.0574 | – | – | – | 0.0505 | 0.0514 | – | 0.0534
16 | Q227R | 0.053 | 0.0596 | – | – | – | 0.0685 | 0.0595 | – | – | 0.0541 | – | 0.065 | – | – | – | – | 0.0656 | – | 0.0685
17 | Q227Y | 0.041 | 0.0487 | 0.0533 | 0.0658 | – | 0.0146 | 0.0509 | 0.0657 | 0.0505 | 0.0564 | 0.0624 | – | – | 0.0589 | – | 0.0581 | 0.0589 | 0.0608 | 0.098
18 | P228C | 0.0598 | – | 0.0658 | 0.0585 | – | – | 0.0505 | 0.0686 | – | 0.0566 | – | – | – | 0.0521 | 0.057 | 0.0789 | 0.0614 | 0.0622 | 0.0662
19 | P228D | 0.0541 | 0.0584 | 0.0657 | – | 0.0535 | – | 0.0743 | 0.0466 | 0.0503 | 0.075 | – | – | – | – | – | – | – | – | 0.0704
20 | V229P | 0.0433 | – | 0.067 | 0.083 | 0.0603 | 0.0645 | 0.0552 | 0.0612 | 0.0548 | 0.0613 | 0.0584 | 0.0556 | – | 0.0428 | 0.049 | 0.0589 | 0.0807 | 0.0463 | 0.0453
21 | T233C | 0.0712 | – | 0.0596 | 0.0521 | 0.0624 | 0.0625 | 0.0636 | 0.0682 | – | 0.0748 | 0.0817 | – | – | – | 0.0497 | – | – | – | 0.0628
22 | Q234C | 0.0638 | – | 0.0438 | 0.0673 | 0.0641 | 0.0478 | 0.0435 | – | 0.0626 | – | – | 0.0499 | 0.0446 | 0.0532 | 0.0636 | 0.0605 | 0.0733 | 0.0608 | –
23 | Q234D | 0.0516 | 0.0689 | 0.067 | 0.0492 | 0.054 | 0.0421 | 0.0602 | – | 0.0539 | 0.0458 | – | 0.0226 | 0.0805 | 0.0638 | 0.0711 | 0.0583 | 0.0762 | – | 0.0722
24 | L235A | 0.0606 | 0.0512 | 0.0385 | – | 0.0746 | 0.0812 | 0.0654 | 0.0677 | – | 0.0947 | 0.0659 | 0.0455 | 0.0506 | – | – | 0.0663 | 0.0655 | 0.0643 | 0.0662
25 | L235I | 0.0554 | – | 0.0587 | – | 0.0753 | 0.0537 | 0.0528 | 0.0564 | 0.0584 | – | – | – | 0.0586 | – | 0.0696 | 0.0607 | 0.0657 | 0.0669 | –
26 | L235N | 0.0418 | 0.0754 | – | 0.0441 | 0.0708 | – | – | 0.0575 | – | – | – | 0.0658 | 0.0557 | 0.0514 | – | 0.0603 | 0.0598 | – | 0.0645
